Source: PubChem BioAssay AID1345083 (National Center for Advancing Translational Sciences (NCATS), 2018)
About 6,200 (6.6%) of roughly 94,000 compounds were called active. The shares of active, inactive and inconclusive entries below differ from those in the screen. Calls follow the shape of the dose curve; as a rule, active = well fitted inhibition curve with a large enough effect; inconclusive = small, poorly fitted or top-dose-only effect; inactive = flat fitted curve, though single readings scatter. A potency beside an inconclusive call is a rough fit, not a confirmed value.

Assay: Cytotoxic Profiling in HEK 293 Cell Line of Diverse Libraries Using Quantitative High-Throughput Screening; also: nearly all actives have a fitted effect of over 60% in size
Conditions: HEK 293 viability, ATP luminescence (CellTiter-Glo), 48-72 h; activity change, negative = cytotoxicity: at 115 µM (top of the series) unless noted; series mostly up to 115 µM
How it was run: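 Read-out: CellTiter-Glo ATP luminescence. Cells: HEK 293, 250 cells/well. Exposure: 48 or 72 hr, 37 degree Celsius.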
% is scaled to controls: 0 for no effect and ±100 for the full control effect; potency is read from the fitted curve at half-maximal effect; tags tell the direction and shape of the fitted curve.

Question: For `CCN(Cc1ccccn1)C(=O)c1coc(COc2ccc3c(c2)OCO3)n1`, which Potency is on record?
Answer: inconclusive: 28.2 µM [inhibitor, partial curve, poor fit]

Question: For `O=C(N[C@H]1CO[C@H]2[C@@H]1OC[C@@H]2Nc1nccc(-c2cccs2)n1)c1ccccc1`, which Potency is on record?
Answer: active: 79.4 µM

Question: With `CCS(=O)(=O)N1CCCC(c2nc(CCOc3ccc(F)cc3)no2)C1` (configuration not stated) as the compound, how does the Potency read?
Answer: inconclusive: 56.2 µM [inhibitor, partial curve, poor fit]

Question: With `Cc1nn2c(c1-c1ccccc1OCc1ccccc1)N(Cc1nccn1C)CCC2` as the compound, how does the Potency read?
Answer: active: 100 µM

Question: With `Cn1nccc1C(=O)N1CC(C(=O)Nc2ccccn2)C2(CCOCC2)C1` (configuration not stated) as the compound, how does the “outcome” value read?
Answer: inactive

Question: Which Potency does the source give for `Cc1ccccc1-c1cc(C(=O)NCc2cccnc2)c2c(c1)N(C)CCO2` here?
Answer: inconclusive: 63.1 µM [inhibitor, full curve, poor fit]

Question: Which Potency does the source give for `CC(C)CCN1CCOc2cc(C(=O)NCCOc3ccccc3)ccc2C1` here?
Answer: active: 100 µM

Question: With `Cc1cccc(OCC2CCCN(c3ncncn3)C2)c1` (configuration not stated) as the compound, how does the Potency read?
Answer: inconclusive: 79.4 µM [inhibitor, partial curve]

Question: For `CC(=O)NCC(=O)NCC1CCN(c2cc(-c3ccc(Cl)cc3)[nH]n2)CC1`, which “activity change, negative = cytotoxicity” value is on record?
Answer: inactive: -1.27%

Question: For `O=C(Cc1cccc(F)c1)N1CCC2(CC1)CN(c1ncccn1)CC2CO` (configuration not stated), which Potency is on record?
Answer: inconclusive: 50.1 µM [inhibitor, partial curve, poor fit]

Question: With `COc1ccc(Cn2c(=O)c(C(=O)N3CCN(C(=O)N(C)C)CC3)nc3cccnc32)cc1` as the compound, how does the “outcome” value read?
Answer: inactive

Question: With `COc1ccc(CC2CCOC3(CCN(S(=O)(=O)c4c(C)nn(C)c4C)CC3)C2)cc1` (configuration not stated) as the compound, how does the Potency read?
Answer: inconclusive: 79.4 µM [inhibitor, partial curve, poor fit]

Question: Which Potency does the source give for `Cc1cccc(-c2noc(CCC(=O)N3CCC(C)(c4noc(C5CC5)n4)CC3)n2)c1` here?
Answer: inconclusive: 8.91 µM [inhibitor, partial curve, poor fit]

Question: With `COc1ccccc1C(=O)N1CCC2(CC1)C(=O)Nc1ccccc12` as the compound, how does the Potency read?
Answer: inconclusive: 89.1 µM [inhibitor, partial curve]

Question: With `O=C(O)COCC(=O)N[C@H]1CO[C@H]2[C@@H]1OC[C@@H]2n1nnnc1Oc1ccc(-n2cncn2)cc1` as the compound, how does the “outcome” value read?
Answer: inactive

Question: For `CC(C)NC(=O)N1CNC(=O)C12CCN(C(=O)[C@@H](N)c1ccccc1)CC2`, which “outcome” value is on record?
Answer: inactive

Question: Which Potency does the source give for `O=C(OCc1ccccc1)N1CCC2(CC1)C(=O)NN=C2c1cccnc1` here?
Answer: inconclusive: 44.7 µM [inhibitor, partial curve, poor fit]

Question: For `COc1ccc(-c2onc(C)c2C(=O)NCCCCc2ccccc2)cc1`, which Potency is on record?
Answer: inconclusive: 79.4 µM [inhibitor, partial curve, poor fit]

Question: For `CC(=O)Nc1ccc(CN2CCn3c(nnc3-c3ccccc3)C2)cc1`, which “activity change, negative = cytotoxicity” value is on record?
Answer: inactive: -4.01%

Question: Which Potency does the source give for `CCc1ccc(CN2CCCCC23Cc2ccccc2CNC3=O)cc1` (configuration not stated) here?
Answer: inconclusive: 56.2 µM [inhibitor, partial curve, poor fit]

Question: For `CCCC(=O)N1CCC(N2C(=O)C3(CCCCC3)C2c2ccccc2)CC1` (configuration not stated), which Potency is on record?
Answer: inconclusive: 22.4 µM [inhibitor, partial curve, poor fit]

Question: Which Potency does the source give for `COc1ccc(-c2ccnc3nc(-c4ccccc4OC)nn23)cc1OC` here?
Answer: inconclusive: 50.1 µM [inhibitor, partial curve, poor fit]

Question: Which “activity change, negative = cytotoxicity” value does the source give for `Cc1ccc(N2CCN(c3ncncc3-c3nc(-c4ccccc4)no3)CC2)cc1` here?
Answer: inactive: -16.1%

Question: For `CCCn1ccc2oc(C)c(C(=O)NCc3ccccc3)c2c1=O`, which Potency is on record?
Answer: inconclusive: 79.4 µM [inhibitor, single point]

Question: For `CCOc1ccc(CC(=O)N2CCC(Cc3nc(-c4ccc(OC)cc4)no3)CC2)cc1OCC`, which Potency is on record?
Answer: inconclusive: 39.8 µM [inhibitor, partial curve, poor fit]

Question: For `CN1CC(=O)N(C2CCCNC2)Cc2c1ncnc2N1CCCC(O)C1` (configuration not stated), which “outcome” value is on record?
Answer: inactive

Question: Which “activity change, negative = cytotoxicity” value does the source give for `O=C1Cc2c(-c3ccc4c(c3)OCO4)n[nH]c2CN1CC1CCOCC1` here?
Answer: inactive: -28% [at 172 µM]

Question: With `CSc1ccc(CNC(=O)C2CCN(c3cc(C(F)(F)F)nc(C)n3)CC2)cc1` as the compound, how does the Potency read?
Answer: inconclusive: 17.8 µM [inhibitor, full curve, poor fit]

Question: With `CCN(Cc1ccncc1)C(=O)c1c(OCC2CC2)cc(=O)n2c1CCCCC2` as the compound, how does the “activity change, negative = cytotoxicity” value read?
Answer: inactive: 0.874%

Question: Which Potency does the source give for `O=C(c1ccc(F)c(Cl)c1)N1CCC2(CC1)CN(c1ccccc1)C2=O` here?
Answer: active: 89.1 µM

Question: With `CC(c1cccc(CN2CCC(CO)(CN3CCCC3)CC2)c1)N(C)C` (configuration not stated) as the compound, how does the Potency read?
Answer: inconclusive: 28.2 µM [inhibitor, full curve, poor fit]

Question: With `CSc1ccc2cc(CN(C)CCO)c(-c3ccc(Cl)cc3)nc2c1` as the compound, how does the Potency read?
Answer: inconclusive: 89.1 µM [inhibitor, single point]

Question: With `CCCc1noc(-c2cccn3c(CNC(=O)c4cccc(Cl)c4)nnc23)n1` as the compound, how does the Potency read?
Answer: inconclusive: 89.1 µM [inhibitor, single point]

Question: With `CN(C)CCCC(=O)N1CCC2(CC1)CN(C(=O)Cc1ccc(O)cc1)CCO2` as the compound, how does the “outcome” value read?
Answer: inactive

Question: Which Potency does the source give for `Cn1cccc1CN1CCCC2(CN[S+](=O)([O-])c3ccccc3N2)C1` (configuration not stated) here?
Answer: inconclusive: 89.1 µM [inhibitor, single point]

Question: For `CCOc1cccc(-c2nc(C(=O)Nc3ccc(F)cc3)cs2)c1`, which Potency is on record?
Answer: inconclusive: 89.1 µM [inhibitor, single point]

Question: With `C#CCNC(=O)[C@H]1O[C@H](CCN2CCN(c3ccccc3)CC2)CC[C@@H]1O` as the compound, how does the “activity change, negative = cytotoxicity” value read?
Answer: inactive: -3.59% [at 172 µM]

Question: For `O=C(COc1ccccc1)N1CCC2(CC1)CN(Cc1ccccc1)CC2CO` (configuration not stated), which Potency is on record?
Answer: inconclusive: 44.7 µM [inhibitor, partial curve, poor fit]

Question: With `O=C(CNC(=O)c1ccc(-c2cccc(C(F)(F)F)c2)cc1)NCc1ccccc1` as the compound, how does the Potency read?
Answer: inconclusive: 7.94 µM [inhibitor, full curve, poor fit]

Question: Which Potency does the source give for `COCCN(Cc1nccs1)C(=O)c1cnc(-c2ccccn2)[nH]c1=O` here?
Answer: active: 39.8 µM

Question: For `CC(C)C1=NOC2(CCCN(Cc3ccc(C(F)(F)F)cc3)C2)C1` (configuration not stated), which Potency is on record?
Answer: inconclusive: 112 µM [inhibitor, single point]

Question: For `Cc1ccc(C(=O)N2CCC[C@H]2c2nc(-c3ccccc3)no2)cc1C`, which Potency is on record?
Answer: inconclusive: 70.8 µM [inhibitor, partial curve, poor fit]
